About 1,700 (3.3%) of roughly 52,000 compounds were called active. No stated cut-off is given here; in the data, active means survival mostly below about 52% (no sharp cut-off); inactive means mostly above about 56%. Some of the results follow.

For the assay, the system named is Wild type. The assay can be described thus: growth inhibition of S. aureus wild type versus tarO mutant, primary screen, teichoic acid synthesis inhibitors, RN4220, OD600 (AID 463173). The settings on record: S. aureus RN4220 wild type/DeltatarO growth, OD600, 18 h, stronger effect = lower value, screened at 18.75 µg/mL (by protocol).
`COC(CN(C)S(=O)(=O)c1ccc(Br)cc1)OC`: the survival was inactive: 102%. Next, `Cc1cc(C)cc(-n2ccnc(NCCc3ccccc3)c2=O)c1`: inactive: 75%; `COc1ccc(OC)c(N(CC(=O)N2CCN(c3ccccc3F)CC2)S(C)(=O)=O)c1`: inactive: 89%. `COc1ccc(-c2nc(CS(=O)CC(=O)NCCc3ccccc3)c(C)o2)cc1OC` (centres undefined): the survival is inactive: 88%. As for `CCOC(=O)c1cc2c(=O)n3ccccc3nc2n(CC(C)C)c1=NC(=O)COc1ccc(Cl)cc1`, the survival was inactive: 115%.

In the case of `COc1ccc(C(=O)Nc2ccc3nc4c(c(Nc5ccc(OC)c(OC)c5)c3c2)CCCC4)c(OC)c1`, the survival was inactive: 76%. Consider `Cc1ccc2oc(C(=O)Nc3ccc(S(=O)(=O)N4CCCC(C)C4)cc3)cc(=O)c2c1` (centres undefined), for which the survival is inactive: 82%. As for `Cc1ccc(C)c(N2CCN(C(=O)c3cnn(C(C)(C)C)c3C3CCN(C(=O)OC(C)(C)C)CC3)CC2)c1`, the survival was inactive: 77%.

With `CCn1cc2nc(SCc3cccc(C(F)(F)F)c3)n(Cc3ccc(Cl)cc3)c(=O)c2n1`, the survival is inactive: 146%. For `COc1ccc(OC)c(NC(=O)CCCc2nnc3n(C(C)C)c(=O)c4sccc4n23)c1`, the survival is inactive: 85%.

Consider `Cc1ccc(Cl)cc1-n1nnc(-c2nsc(NC(=O)c3ccccc3Cl)n2)c1C`, for which the survival was inactive: 30%. For `COc1ccc(C)cc1NC(=O)N1CCC(CN2CCOCC2)CC1`, the survival is inactive: 82%. In the case of `Cc1ccc(N(CC(=O)N2CCN(c3cccc(Cl)c3)CC2)S(=O)(=O)c2c(C)noc2C)cc1`, the survival is inactive: 78%. Turning to `CCc1ccc(-n2c(=O)c3ccccc3n(CC(=O)NCCc3ccc(OC)c(OC)c3)c2=O)cc1`, the survival was inactive: 102%.

As for `COc1ccc(Cl)cc1NC(=O)NCCn1c(=O)oc2ccc(C)cc21`, the survival is inactive: 62%. Next, `Cc1ccccc1NC(=O)c1c(NC(=O)c2ccccc2)sc2c1CCC2`: inactive: 137%. Consider `OCCN(Cc1ccccc1)Cc1ccccc1O`, for which the survival is inactive: 89%. As for `Cc1ccc2cc3cc(C(=O)N4CCN(c5ccc(Cl)cc5)CC4)oc3nc2c1`, the survival is inactive: 86%.

Consider `CCOc1ccc(NC(=O)CC2C(=O)N(c3ccccc3)C(=O)N2CCc2cccs2)cc1` (centres undefined), for which the survival was inactive: 63%. Regarding `Cn1c(SCC(=O)NC(C)(C)C)nc2cccnc21`, the survival is inactive: 107%.

As for `Fc1cccc(-c2cc3nc4c(c(NCCCN5CCOCC5)n3n2)CCCC4)c1`, the survival was inactive: 103%.

For `COc1ccc(-c2cn3nc(N4CCC(C(=O)Nc5ccccc5OC)CC4)sc3n2)cc1`, the survival was inactive: 54%. With `CCN(CC)C(=O)c1sc2c(c1C)c(=O)n(-c1ccccc1)c(=O)n2Cc1c(C)cc(C)cc1C`, the survival is inactive: 71%. For `CC(C)C(NS(=O)(=O)c1ccc2c(c1)oc(=O)n2C)C(=O)N1CCN(c2cccc(Cl)c2)CC1` (centres undefined), the survival was inactive: 131%. As for `COC(=O)/C(C#N)=C/c1ccc(C)s1`, the survival was inactive: 109%.

Turning to `CCN(CC)C(=O)c1ccc2c(c1)N(Cc1c(F)cccc1Cl)C(=O)c1ccccc1S2`, the survival is active: 16%. `COc1ccc(NC(=O)C(Cc2c[nH]c3ccccc23)NC(=O)OC(C)(C)C)cc1` (centres undefined): the survival is inactive: 82%. On to `Cc1ccn2c(Nc3c(C)cccc3C)c(-c3ccsc3)nc2c1`, for which the survival is inactive: 54%.

In the case of `COC(=O)Cn1c(=NC(=O)c2ccc3c(c2)OCCO3)sc2ccccc21`, the survival is inactive: 99%. On to `N#Cc1c[nH]n2c(=O)cc(Cc3ccccc3)nc12`, for which the survival is inactive: 109%. Consider `COc1ccc(N2CC(NC(=O)c3cccs3)CC2=O)cc1` (centres undefined), for which the survival is inactive: 70%.

Take `CCN(CC)CC(=O)Nc1sc2c(c1C#N)CCCC2`: the survival was inactive: 111%.

With `O=C(CSc1nc(=O)[nH]c2c1CCCC2)Nc1ccc(Cl)c(Cl)c1`, the survival was inactive: 95%.

Regarding `CC1(C)Cc2c(ccc3ccccc23)CN1`, the survival is inactive: 105%. In the case of `CN(Cc1ccccc1)c1nnc(NC(=O)Nc2cccc(Br)c2)s1`, the survival is inactive: 113%. For `Cc1ccc(-n2nc(C(=O)Nc3ccc(F)cc3Cl)c(=O)n(C)c2=O)cc1`, the survival is inactive: 68%. Regarding `CCN(CC)S(=O)(=O)c1ccc(NC(=O)c2cc3ccc4cccnc4c3[nH]2)cc1`, the survival was inactive: 70%. For the compound `Cc1cc(N2CCN(C)CC2)nc2ccc(NC(=O)c3ccc(C(C)(C)C)cc3)cc12`, the survival was active: -20%. Regarding `Cc1ccc(C(=O)n2nc(C)c(S(=O)(=O)N3CCCCCC3)c2C)cc1C`, the survival was inactive: 55%. Take `COc1ccc(Cn2c(=O)n(-c3ccc(F)c(Cl)c3)c(=O)c3c2c2cc(OC)ccc2n3C)cc1`: the survival was inactive: 91%. As to `CCc1nnc(NC(=O)CSc2nccn2Cc2ccc(C)cc2)s1`, the survival is inactive: 73%. As for `COc1ccccc1NC(=O)CSc1nc(O)c(C/C=C/c2ccccc2)c(=O)[nH]1`, the survival is inactive: 74%.

On to `COc1ccc(CNC(=O)c2nc(SCc3ccc(C)cc3)ncc2Cl)cc1`, for which the survival is inactive: 92%. Next, `CCOc1cccc2sc(N3CCN(C(=O)c4ccc5c(c4)CCCC5)CC3)nc12`: inactive: 75%; `CCOC(=O)c1c(S(=O)(=O)N2CCC(C(=O)NCc3cccc(C)c3)CC2)c(C)n(C)c1C`: inactive: 69%.

Take `O=C(O)CCC(=O)Nc1ccc2c(c1)oc1ccccc12`: the survival was inactive: 106%. Regarding `CCCCOc1ccc(C2(C)NC(=O)N(C)C2=O)cc1` (centres undefined), the survival is inactive: 112%.

On to `CCCCc1ccc(NC(=O)c2cc(-c3ccc(C)c(F)c3)on2)cc1`, for which the survival was inactive: 87%.

`Cn1c(=O)c2sccc2n2c(CCC(=O)N3CCN(c4ccc(F)cc4)CC3)nnc12`: the survival was inactive: 151%. Regarding `CCc1ccc2[nH]c(=O)c(CN(CCCO)C(=O)Nc3ccccc3)cc2c1`, the survival was inactive: 107%. Next, `Cc1ccc(OCc2nc(-c3ccc(C(=O)NCCc4ccc(Cl)cc4)cc3)oc2C)cc1`: inactive: 69%; `Cc1ccc(NC(=O)CN2C(=O)CCc3ccccc32)cc1C`: inactive: 85%; `CC(C)Nc1ccc(-c2nc(-c3ccncc3)no2)cc1[N+](=O)[O-]`: inactive: 79%. The same measure for `COc1ccc(NC(=O)c2nn(C)c3c2CS(=O)(=O)c2ccccc2-3)cc1Cl`: inactive: 91%; for `COc1ccc(C2=C(Nc3ccc(Br)c(C)c3)c3ccccc3C2=O)cc1`: active: 20%. With `Cc1ccccc1CN1C(=O)c2ccccc2Sc2ccc(C(=O)NC3CCCCC3)cc21`, the survival is inactive: 74%.

`CC1=NN(Cc2ccccc2)C(=O)/C1=C\c1ccc(N(C)C)cc1`: the survival was inactive: 107%. As to `CCc1nn(CC(=O)N2CCN(c3cccc(OC)c3)CC2)c(=O)c2cc3occc3n12`, the survival is inactive: 80%. As for `CCN(CC)C(=O)CSc1nc2cccnc2n1-c1ccccc1OC`, the survival was inactive: 107%. In the case of `COc1ccc(N(CC(=O)NC(C)c2ccccc2)S(=O)(=O)c2c(C)nn(C)c2C)cc1` (centres undefined), the survival was inactive: 89%. Regarding `COc1ccc(N2CCN(Cc3nc4c(c(=O)[nH]c(=O)n4C)n3Cc3ccc(C)cc3)CC2)cc1`, the survival was inactive: 113%.

In the case of `CCOC(=O)c1c(C)[nH]c(C)c1S(=O)(=O)N1CCCC(C(=O)N2CCN(c3ccccc3F)CC2)C1` (centres undefined), the survival was inactive: 82%.

Consider `CC1CN(C(=O)CCC(=O)NCc2cccc(Cl)c2)c2ccccc2S1` (centres undefined), for which the survival is inactive: 108%. For the compound `O=C(Nc1ccc(CN2CCCCC2)cc1)c1cccnc1Cl`, the survival is inactive: 101%.

Consider `O=C(O)c1ccc(Cn2cnc3cccnc32)cc1`, for which the survival was inactive: 55%.

In the case of `CC1CCN(CC2CCN(C(=O)NCc3ccc(F)cc3)CC2)CC1`, the survival was inactive: 78%.

On to `COc1ccccc1C(=O)N(Cc1nc(-c2cccc(C)c2)no1)C(C)C`, for which the survival is inactive: 56%.

In the case of `COc1ccc(S(=O)(=O)c2cnc3cc(OC)c(OC)cc3c2N2CCCC(C)C2)cc1` (centres undefined), the survival was inactive: 84%.

Consider `Cc1ccc(/C=C/c2onc(C)c2S(=O)(=O)N2CCC(C(=O)N3CCN(c4cccc(C)c4)C(C)C3)CC2)cc1` (centres undefined), for which the survival was inactive: 76%. `CCOc1ccc(C2C(C(=O)Nc3ccccc3)=C(C)Nc3nc(SCc4cccc(OC)c4)nn32)cc1` (centres undefined): the survival is inactive: 92%.

`O=C(NCc1ccccc1)c1nc(S(=O)(=O)Cc2ccc(F)cc2)ncc1Cl`: the survival is active: -5%. Take `O=S(=O)(NCCc1csc2nc(-c3ccccc3)nn12)c1cccs1`: the survival was inactive: 81%. `CCOc1ccc(-c2cn3c(n2)sc2cc(C(=O)NCCc4ccc(OC)cc4OC)ccc23)cc1`: the survival was inactive: 72%. As for `Cc1nn(C(C)C(=O)NC2CCC(C)CC2)c(=O)c2c1sc1ccccc12` (centres undefined), the survival was inactive: 76%. In the case of `CCc1ccc(OCc2nc(-c3ccc(-n4cccc4)cc3)no2)cc1`, the survival is inactive: 104%. As for `CCc1nc(-c2cc(S(=O)(=O)N3CCN(c4ccc(OC)cc4)CC3)ccc2OC)no1`, the survival is inactive: 81%. Next, `CC(C)CCOc1ccc(C2N=C(N)Nc3nc4ccccc4n32)cc1` (centres undefined): active: -15%. `O=C(COc1ccccc1Cl)Nc1nnc(S(=O)(=O)N2CCCC2)s1`: the survival is inactive: 74%. Consider `Cc1ccc(NC(=O)CCc2c(C)nn(-c3ccc(N4CCOCC4)nn3)c2C)c(C)c1`, for which the survival was inactive: 97%.

Turning to `COc1ccc(-n2nc3ccc(NC(=O)c4ccc(C#N)cc4F)cc3n2)cc1Cl`, the survival is inactive: 85%. For the compound `COc1cccc2c1cc1c(=O)n(CC(=O)N3CCN(c4cccc(C(F)(F)F)c4)CC3)nc(C)n12`, the survival was inactive: 88%. Turning to `CCOc1ccccc1NC(=O)C(CC(C)C)NC(=O)C1CCC(C)CC1` (centres undefined), the survival is inactive: 109%.

Take `CCCCN(CC)C(=O)CSc1nc2n[nH]c(C)c2c(=N)n1-c1cccc(C)c1`: the survival was inactive: 78%. Take `CCOc1ccc(NC2SC(=O)N(Cc3ccccc3)C2=O)cc1` (centres undefined): the survival was inactive: 72%. In the case of `COc1cccc2sc(NC(=O)CS(=O)(=O)c3ccc(C)cc3)nc12`, the survival was inactive: 73%. In the case of `O=C(Nc1cccs1)Nc1ccc(F)cc1F`, the survival is inactive: 84%. The same measure for `O=C(Nc1cccc(C(F)(F)F)c1)c1cc(-c2ccc(Cl)s2)nc2ccccc12`: inactive: 100%.

Consider `O=C(O)Cn1c(-c2cccs2)cc2cc(Cl)ccc21`, for which the survival is inactive: 61%. `COc1ccc(Cn2c(CO)cnc2SCC(=O)Nc2ccc3c(c2)OCCO3)cc1`: the survival was inactive: 72%.
